Some of the results follow. The energies were worked out here from pooled read counts, against the library average; single values are noisy.
Each sequence was assayed against T1, Pho4 (S. cerevisiae) (UniProt P07270) (assay: relative binding free energy (BET-seq); higher = weaker binding). Settings: reference: library average.
T1 sequence: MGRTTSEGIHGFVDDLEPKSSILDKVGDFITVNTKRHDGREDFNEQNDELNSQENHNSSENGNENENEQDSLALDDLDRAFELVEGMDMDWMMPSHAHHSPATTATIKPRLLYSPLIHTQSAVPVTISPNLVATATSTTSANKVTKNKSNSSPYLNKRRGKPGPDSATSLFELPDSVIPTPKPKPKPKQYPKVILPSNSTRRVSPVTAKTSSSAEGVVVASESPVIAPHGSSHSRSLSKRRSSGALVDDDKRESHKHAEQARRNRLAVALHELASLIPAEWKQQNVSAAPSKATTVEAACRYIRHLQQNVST

Sequence	relative binding free energy [kcal/mol]
ACTGGCACGTGGGTTG	-0.26
ATTCGCACGTGAGAGT	0.19
ATGGACACGTGCGGGT	-0.02
GAACACACGTGTTGGG	0.06
GATGCCACGTGTTGTG	-0.02
GCTGTCACGTGGCTGG	0.14
GGGTTCACGTGGTGCT	0.24
AGAGTCACGTGCAGTG	0.17
GCGTTCACGTGTGTAA	0.25
GTTATCACGTGGTTGT	0.11
TTAAGCACGTGAAGCT	0.11
GGCATCACGTGGGGCA	0.16
GTGTACACGTGCTATG	0.07
AGGGGCACGTGGGTAC	-0.26
GGGTTCACGTGTAGGC	0.23
GGTCTCACGTGTTAAG	0.29
CTTATCACGTGGTGCT	0.13
AGAGGCACGTGGTCGA	-0.19
ATAGTCACGTGTTGCT	0.01
ATATTCACGTGTGAAT	0.27
GGGCGCACGTGGCGTT	-0.06

Sequence	relative binding free energy [kcal/mol]
GTGATCACGTGTAGCT	0.22
TTTTTCACGTGTGCGT	0.37
GTTTTCACGTGGTACG	0.24
GTTTTCACGTGATGAT	0.42
TTTAGCACGTGTGAAA	0.08
TTTACCACGTGGTTGA	-0.05
GTGTGCACGTGGTCGA	-0.07
TCATTCACGTGTGTTT	0.25
TTGACCACGTGGTTAG	0.05
CGGGGCACGTGGAAGA	-0.12
GAATGCACGTGTTGGA	-0.02
AAACTCACGTGTGTTA	0.35
GGTTTCACGTGTGTCT	0.2
TCTTGCACGTGTGCGT	0.07
GGTGGCACGTGCGTGC	-0.09
TAAAGCACGTGGGGCG	-0.34
AGAGTCACGTGATGTA	0
GGGCGCACGTGCAGGG	0
TCGGACACGTGTTGAG	0.09
CTTGGCACGTGAGCTA	0.28
GGAGGCACGTGAATGT	0.3

Sequence	relative binding free energy [kcal/mol]
TGTTGCACGTGTGGTA	-0.01
AGGGTCACGTGGACTA	0.21
TTTTACACGTGATGTC	0.22
ATAATCACGTGGTGCG	0.06
GTTTACACGTGGGTCA	0.06
AGAGTCACGTGGGAAT	0.09
CGGTTCACGTGTGGAT	0.28
TTAAGCACGTGCTGGA	-0.2
GGCGACACGTGGGGGT	-0.11
GTGGACACGTGATCGT	0.13
GTTGTCACGTGGATCG	0.25
AATATCACGTGGTAGA	0.08
TGGTACACGTGAGAGG	0.26
GATGACACGTGGTAGA	0.03
TCTTGCACGTGGTGTG	-0.1
GATGCCACGTGATGGG	0.06
AGTGGCACGTGAGACT	0.11
TTAATCACGTGTGTTC	0.09
TAGATCACGTGATGGG	0.25
ATGCTCACGTGTAAGT	0.42
TGGCGCACGTGGTGGA	-0.13

— the BET-seq Pho4 binding data (Le et al. 2018)
